Reference: the supplement of paper PMC3334620
In all, about 33,000 sequences were measured (“E-score (-0.5 to 0.5)”: median about -0.035, highest 2% from about 0.34 on). The list shows a part of the results.

The sequences below were run against T1, Mot3 (UniProt P54785) (assay: PBM E-score (8-mer binding enrichment) (E-score (-0.5 to 0.5)); higher = stronger / more preferred TF binding; most listed sequences are background and not binding sites). Conditions: protein concentration: 200 nM; construct: GST-full length.
T1 sequence: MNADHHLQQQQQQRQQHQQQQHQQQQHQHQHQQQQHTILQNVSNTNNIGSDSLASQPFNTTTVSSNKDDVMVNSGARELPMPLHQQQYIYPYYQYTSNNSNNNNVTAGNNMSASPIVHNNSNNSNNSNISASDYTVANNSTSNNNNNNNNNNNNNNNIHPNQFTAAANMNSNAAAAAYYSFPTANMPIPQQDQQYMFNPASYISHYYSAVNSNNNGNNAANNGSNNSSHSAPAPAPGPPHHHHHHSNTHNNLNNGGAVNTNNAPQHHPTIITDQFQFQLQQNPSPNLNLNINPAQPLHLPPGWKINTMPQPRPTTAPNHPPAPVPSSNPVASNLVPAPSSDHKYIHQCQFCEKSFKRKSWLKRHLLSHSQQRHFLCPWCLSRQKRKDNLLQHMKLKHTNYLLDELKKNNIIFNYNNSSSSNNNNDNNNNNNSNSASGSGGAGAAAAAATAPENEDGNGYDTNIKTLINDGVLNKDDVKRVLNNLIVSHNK
Description: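 Universal 'all 10-mer' protein binding microarrays (Agilent AMADID 015681) probed with GST-tagged S. cerevisiae TFs (full-length or DBD) made by in vitro transcription/translation (PURExpress), about 100-200 nM. Bound TF was detected with fluorescent anti-GST. Each ungapped 8-mer (which stands for itself and its reverse complement) is scored by the PBM enrichment score (E-score), a modified Wilcoxon-Mann-Whitney statistic from -0.5 to +0.5, computed with the Universal PBM Analysis Suite. Scale: above 0.35 generally sequence-specific binding.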

| Sequence | PBM E-score |
| --- | --- |
| CTGCGCTC | -0.242 |
| AGTGCCCG | 0.0343 |
| AACCCTAA | -0.0971 |
| ATAGAAGG | 0.0246 |
| AGCCCCTG | -0.0786 |
| GCAAGTGC | 0.0248 |
| ACTTATCT | -0.0445 |
| ACGGTTTA | 0.0145 |
| CCGGCACA | -0.362 |
| AGAGGCCG | -0.172 |
| ATATAAAA | 0.101 |
| CGATCGAG | -0.195 |
| GCATAACA | 0.271 |
| ATTGATGC | -0.0235 |
| CTCGTGAA | -0.115 |
| CCATCGGA | -0.346 |
| GCGGTTAA | -0.063 |
| GACCTAGC | -0.169 |
| CACGAGAA | 0.103 |
| GTGAACGA | -0.0441 |
| GCTTTTAC | 0.15 |
| ATCTTGGA | -0.102 |
| ACTCTAGA | -0.144 |
| CAACGACG | 0.0644 |

| Sequence | PBM E-score |
| --- | --- |
| AGCGTGTG | 0.147 |
| ATAAACGA | 0.111 |
| CCCTAATC | -0.241 |
| ACGAAAGG | 0.153 |
| CATGCCCA | 0.0279 |
| GCGGCCGC | -0.354 |
| ACGAAGTC | -0.0333 |
| ACACTCAT | 0.125 |
| CAGACCGG | -0.14 |
| CTGAATCA | -0.0323 |
| GCATGGAC | -0.0715 |
| AGGCCAAC | 0.0556 |
| GTTGTTTA | 0.245 |
| CGAGACAC | -0.214 |
| CGCTTGAA | 0.127 |
| CAATCCCA | -0.226 |
| ATACATGG | 0.374 |
| AAACAATC | 0.0401 |
| ATCAGAGG | -0.218 |
| ATTAATGA | 0.00942 |
| ACGTGAGG | -0.137 |
| ATCGTGTC | 0.247 |
| CAGAGAAA | 0.118 |
| AAGTCGGC | -0.189 |

| Sequence | PBM E-score |
| --- | --- |
| ACCAGTCG | 0.078 |
| AATTTACG | 0.203 |
| GAGATGCA | -0.207 |
| ATGCTGGG | -0.119 |
| AGGCGAAT | 0.15 |
| GGTACGAA | 0.0697 |
| GCTCACAC | -0.0638 |
| CGGTGTTC | -0.0692 |
| CTTTGATA | -0.0533 |
| AGGAGGAG | -0.164 |
| CAAAGCAG | 0.05 |
| AAAGCCCC | -0.237 |
| CCATGCTC | -0.179 |
| CAAAAGAA | 0.145 |
| CTCTGTGC | 0.00777 |
| CAAGATTA | -0.0424 |
| CTTGTCTC | -0.215 |
| AAACTTTC | -0.0392 |
| AAGGAGCC | -0.108 |
| AGGGGCGC | -0.0261 |
| ACAGGCGT | 0.172 |
| ATCTTTAA | 0.126 |
| ACTTATAT | 0.057 |
| AACAGCTG | 0.0407 |

| Sequence | PBM E-score |
| --- | --- |
| AACTGCAC | -0.00246 |
| GCTGAAGA | -0.127 |
| AGAGAAAG | -0.213 |
| CGACGCAG | 0.0493 |
| TCCCGTAA | -0.0758 |
| AGATTGTG | -0.0264 |
| ATTTGCTC | -0.15 |
| CAGCTACC | -0.196 |
| CAATCCGG | -0.311 |
| ATTGCTCA | -0.018 |
| GCTTTCGA | -0.12 |
| AGTACACA | 0.313 |
| TCTCGACA | 0.174 |
| CTGGTTTA | 0.0553 |
| CACCTAAC | -0.0469 |
| ATGTCAGG | 0.231 |
| CCCGAGGA | -0.214 |
| ATTGTTTC | 0.0123 |
| CCACTTCG | -0.198 |
| CAACTGTA | 0.0387 |
| CGTTCCGC | -0.116 |
| GCTCCCAC | -0.262 |
